The values that follow come from PubChem BioAssay AID463173 (ICCB-Longwood Screening Facility, Harvard Medical School, 2010).

Structures are written as SMILES. Screen size: about 52,000 compounds; about 1,700 (3.3%) were called active. Cut-off read from the data, not from the text of the source: active = survival mostly below about 52% (no sharp cut-off); inactive = mostly above about 56%. The list shows a part of the results.

This assay deals with Wild type. In words: growth inhibition of S. aureus wild type versus tarO mutant, primary screen, teichoic acid synthesis inhibitors, RN4220, OD600 (AID 463173). The conditions noted are these: S. aureus RN4220 wild type/DeltatarO growth, OD600, 18 h, active compounds read low, screened at 18.75 µg/mL (by protocol).
Turning to `COc1ccc(-c2nc3c4cnn(-c5ccccc5F)c4ncn3n2)cc1`, the survival is inactive: 85%.
Take `CC(=O)Nc1ccc(NS(=O)(=O)c2ccc3c(c2)CC(C)N3C(=O)C2CCC2)cc1` (stereo not drawn): the survival was inactive: 80%.
On to `COC(=O)CC1Oc2ccc(F)cc2-n2cc(-c3ccc(Cl)cc3)nc21` (stereo not drawn), for which the survival is inactive: 96%.
As for `COc1ccc(-c2cnc(N)n2CC2CCCO2)cc1` (stereo not drawn), the survival was inactive: 102%.
To `Cc1cccc(C)c1OCCSc1nc2ccccc2n1CC(=O)O` belongs inactive: 67%; to `COc1ccc(N2CCN(S(=O)(=O)c3csc(C(N)=O)c3)CC2)cc1`, inactive: 102%; to `CCN(Cc1ccccc1)C(=O)Cn1c(=O)n(-c2ccc(F)c(Cl)c2)c(=O)c2sc3ccccc3c21`, inactive: 89%.
To `Cc1ccc2cc(CN(CC3CCCO3)C(=O)C(F)(F)F)c3nnnn3c2c1C` (stereo not drawn) belongs inactive: 115%; to `O=C(Nc1cccc(-c2nc3ccccc3o2)c1)c1cc([N+](=O)[O-])ccc1N1CCOCC1`, inactive: 60%.
For the molecule `CCOC(=O)c1ccc(NC(=O)CCS(=O)(=O)c2ccc(C)cc2)cc1`, the survival is inactive: 86%.
As for `Cc1cccc(-c2nc(CCNC(=O)c3ccco3)cs2)c1`, the survival is active: -6%.
To `COc1ccc(Cn2nnnc2C(c2ccccc2)N2CCC(C)CC2)cc1` (stereo not drawn) belongs inactive: 113%.
To `COc1ccc(NC(=O)CN2CCCN(S(=O)(=O)c3ccc(Br)cc3)CC2)c(OC)c1` belongs inactive: 86%; to `Cc1ccc2oc(C(=O)Nc3ccc(S(=O)(=O)N4CCCCCC4)cc3)cc(=O)c2c1`, inactive: 79%; to `CCOC(=O)c1cc(C)n(CC2CCC(C(=O)Nc3ccc(OC)c(OC)c3)CC2)c1C` (stereo not drawn), inactive: 74%.
To `COC(=O)C(C)(C)Sc1nnc2c(n1)[nH]c1c(C)cc(C)cc12` belongs inactive: 103%; to `CCc1ccc(NC(=O)c2sc(-n3nc(C)c(Cc4ccc5c(c4)OCO5)c3C)nc2C)cc1`, inactive: 82%; to `Cc1cc(C)cc(NS(=O)(=O)c2c(C)nc3scc(C)n3c2=O)c1`, inactive: 86%.
With `O=C(Oc1ccccc1F)c1nc(SCc2ccccc2F)ncc1Cl`, the survival was inactive: 114%.
To `CCOc1ccccc1NC(=O)Cn1c(=O)n(-c2ccc(C)c(C)c2)c(=O)c2oc3ccccc3c21` belongs inactive: 83%; to `COc1ccccc1NC(=O)Cn1nc2c3cc(F)ccc3n(Cc3cccc(C)c3)cc-2c1=O`, active: -4%; to `COc1ccc(Nc2ncc3c(n2)CCN(Cc2cccc(F)c2F)C3)c(OC)c1`, inactive: 72%.
For `Cc1ccc2nc(-c3cccc(NC(=O)CSc4ccc(Cl)cc4)c3)oc2c1` the value was inactive: 71%; for `Cc1ccc(-c2nnn(CC(=O)Nc3cccc4cccnc34)n2)o1`, inactive: 102%.
Take `CCN1CCC(N(Cc2ccc3c(c2)OCO3)C(=O)Nc2cccc(C)c2C)CC1`: the survival is inactive: 83%.
For `CC(=O)N1CCCc2cc(S(=O)(=O)NCc3ccccc3Cl)ccc21` the value was inactive: 118%; for `CCc1ccc(Nc2nc3c(S(=O)(=O)c4ccc(C)cc4)nnn3c3ccsc23)cc1`, inactive: 91%; for `Cc1ccc(N(C(=O)Cn2nnc(-c3ccc(C)o3)n2)C(C(=O)NC2CCCCC2)c2ccc(F)cc2)c(C)c1` (stereo not drawn), inactive: 100%.
To `Cc1ccc(C)c(NC(=O)c2cc(S(=O)(=O)N3CCN(c4cccc(Cl)c4)CC3)ccc2F)c1` belongs inactive: 73%.
To `CCN(Cc1ccccc1)C(=O)C1CCC(CNS(=O)(=O)c2ccc3c(c2)CCCC(=O)N3)CC1` (stereo not drawn) belongs inactive: 121%; to `CCN(C(=O)Cn1cc(S(=O)(=O)N2CCN(c3ccccc3F)CC2)c2ccccc2c1=O)c1ccc(C)c(C)c1`, inactive: 131%; to `Cc1ccc(NC(=O)Cn2c(=O)n(-c3ccccc3)c(=O)c3ccc(C(=O)NCc4ccc5c(c4)OCO5)cc32)cc1`, inactive: 132%.
As to `Oc1c(C(c2ccccc2Cl)N2CCC(O)CC2)sc2nc(-c3ccco3)nn12` (stereo not drawn), the survival is inactive: 87%.
To `O=C(Nc1ccccc1C(F)(F)F)c1noc2c1CCCC2` belongs inactive: 72%; to `Cc1ccc(S(=O)(=O)c2nnn3c2nc(N2CCCC(C)C2)c2cc(Cl)ccc23)cc1C` (stereo not drawn), inactive: 90%; to `O=C(COc1ccc(Cl)cc1)Nc1ccc2nc(SCC(=O)N3CCOCC3)sc2c1`, inactive: 88%.
To `Cc1ccc(NCc2cc3cc4c(cc3n(CC(=O)Nc3ccc(F)cc3F)c2=O)OCCO4)cc1` belongs inactive: 82%; to `Cc1nnc2c3ccccc3nc(Nc3ccccc3C(=O)O)n12`, inactive: 83%; to `COc1ccc(S(=O)(=O)Nc2cc(-c3cn4ccc(C)cc4n3)ccc2C)cc1OC`, inactive: 64%.
For `CCn1ccc2cc(S(=O)(=O)N3CCC(C(=O)NCC(C)c4ccccc4)CC3)ccc21` (stereo not drawn) the value was inactive: 87%; for `CCOc1ccc(S(=O)(=O)NCc2ccc3c(c2)CCN3C(=O)c2ccc(C)cc2)cc1`, inactive: 77%; for `Cc1ccc(Cl)cc1NC(=O)c1nnn(Cc2ccccc2)c1N`, inactive: 85%.
`Cc1ccc(-n2ncc(C(=O)NCc3ccccn3)c2C2CCN(C(=O)OC(C)(C)C)CC2)cc1C`: the survival was inactive: 124%.
For `CCc1nc2c(cnn2-c2ccccc2)c(=O)n1-c1ccc(Br)cc1` the value was inactive: 108%; for `COc1cccc(CNC(=O)C2CCN(Cc3cc4ccccc4n3Cc3ccccc3)CC2)c1OC`, inactive: 88%; for `Cc1ccc(NC(=O)CSc2nc3ccccc3nc2Cc2ccccc2)c(Cl)c1`, inactive: 95%.
Turning to `CCN(CC)CCNC(=O)c1ccc(-c2nc(CN3CCc4ccccc43)c(C)o2)cc1`, the survival was inactive: 69%.
To `CCOC(=O)c1cccc(NC(=O)CSc2cc(=O)n(C)c3ccccc23)c1` belongs inactive: 79%; to `Cc1ccc(CN2c3ccccc3-c3nc(SCC(=O)NCCc4ccccc4)ncc3S2(=O)=O)cc1`, active: 14%; to `O=C(Nc1ccc(C(F)(F)F)cc1)c1cc(S(=O)(=O)N2CCCc3ccccc32)ccc1F`, inactive: 78%.
For `CCOC(=O)c1ccc(Oc2nc(C)nc3c2oc2ccccc23)cc1` the value was inactive: 45%; for `O=C(CN1C(=O)C2(SCC(=O)N2c2cccc(F)c2)c2ccccc21)NCc1ccccc1Cl` (stereo not drawn), inactive: 80%; for `CC(=O)N1C(=O)NC(=O)C1(C)C`, inactive: 102%.
With `Clc1ccc(CN2CCc3nc(N4CCN(c5ccccn5)CC4)ncc3C2)cc1`, the survival is inactive: 68%.
To `O=C(/C=C/c1ccccc1)Nc1nc2n(n1)C(c1ccc(Cl)cc1)C=C(c1ccccc1)N2` (stereo not drawn) belongs inactive: 49%; to `Cc1nnsc1C(=O)Oc1ccc(C#N)cc1`, inactive: 83%; to `COc1ccc(C2/C(=C(/O)c3ccccc3)C(=O)C(=O)N2CC(OC)OC)c(OC)c1` (stereo not drawn), inactive: 96%.
To `CCCOc1ccc(NC(=O)CC2C(=O)N(c3ccc(OC)cc3)C(=O)N2CCc2ccncc2)cc1` (stereo not drawn) belongs inactive: 88%; to `CCc1nc2ccccc2n1CCCCOc1cccc(C)c1`, active: 12%.
To `Cc1ccc(/C(C#N)=C\c2cc(C)n(C)c2C)cc1` belongs inactive: 104%.
Consider `CC(C)(C)c1ccc(S(=O)(=O)c2cnc(SCC(=O)Nc3ccc4c(c3)OCCO4)[nH]c2=O)cc1`, for which the survival was inactive: 126%.
For `CC(C)CC(=O)NCC(c1ccc2c(c1)OCO2)N1CCN(c2ccc(F)cc2)CC1` (stereo not drawn) the value was inactive: 146%; for `CCCS(=O)(=O)c1nc(S(=O)(=O)c2ccc(C)cc2)c(NCCCOC(C)C)s1`, inactive: 124%; for `COc1ccc2nc(SCC(O)c3cccc(Br)c3)[nH]c2c1` (stereo not drawn), inactive: 84%.
For `O=C(CCCSc1nc(-c2ccco2)cc(C(F)(F)F)n1)NCC1CCCO1` (stereo not drawn) the value was inactive: 108%.
For `CC1=NN(C(C#N)c2ccccc2)C(C)(C)C1` (stereo not drawn) the value was inactive: 113%.
In the case of `N#Cc1cc(Cl)c(N2CCCCCC2)cc1C#N`, the survival is inactive: 110%.
To `COc1cccc2c1cc1c(=O)n(CC(=O)N3CCN(c4ccc(F)cc4)CC3)nc(C)n12` belongs inactive: 81%; to `CCN(CC)C(=O)CSc1nc2cc3c(cc2c(=O)n1CCCC(=O)NCc1ccc2c(c1)OCO2)OCO3`, inactive: 119%.
For `COc1ccc(-c2cn3c(n2)sc2cc(C(=O)NCCCc4ccccc4)ccc23)cc1` the value was inactive: 86%; for `Cc1nn(-c2ccc(N3CCCCC3)nn2)c(C)c1CCC(=O)NCc1ccccc1`, inactive: 76%; for `O=C(Cn1nc(N2CCN(c3ccccc3)CC2)ccc1=O)NCc1ccccc1F`, inactive: 71%.
To `Cc1ccc(Sc2ccc(N3CCCC(C(=O)Nc4ccc(F)cc4)C3)nn2)cc1` (stereo not drawn) belongs inactive: 60%.
As to `N#C/C(=C/c1cccs1)C(=O)O`, the survival was inactive: 106%.
To `Cc1ccc(-c2nnc(SCC(=O)NC(C)(C)C)nc2-c2ccc(C)cc2)cc1` belongs inactive: 71%.
For `Cc1cccc(C(=O)Nc2ccccc2OCc2cc(=O)n3ccccc3n2)c1` the value was inactive: 63%; for `COc1ccc(C)cc1NS(C)(=O)=O`, inactive: 105%; for `CCOc1ccc(NC(=O)c2cn(C3CCCCC3)c(=O)c3c2c2ccccc2n3C)cc1`, inactive: 78%.
For `O=C(CN1C(=O)COc2ccccc21)c1ccc(Cl)cc1` the value was inactive: 106%; for `CCOc1ccc(C(=O)N(Cc2nc(-c3cccc(C)c3)no2)C(C)C)cc1`, active: 2%; for `Cn1c(=O)c2c(nc(NCCc3ccccc3)n2Cc2ccccc2Br)n(C)c1=O`, inactive: 74%.
For the molecule `COc1ccc(-c2nc(CN3CCC(C(=O)NCc4ccc(C)cc4)CC3)c(C)o2)cc1OC`, the survival was inactive: 95%.
For `CCOc1ccc(CNC(=O)CCCn2c(=O)c3cccn3c3ccccc32)cc1` the value was inactive: 57%.
To `Cc1nn(-c2ccccc2)c(Cl)c1C(N)=O` belongs inactive: 96%; to `NC(=O)c1c(NC(=O)CN2CCCC2)sc2c1CCCC2`, inactive: 96%; to `CCOc1ccccc1Nc1nc2ccccc2nc1NS(=O)(=O)c1ccc(Cl)cc1`, inactive: 72%.
For `COc1ccc(C(=O)n2nc(-c3cccnc3)nc2NCc2ccccc2)cc1OC` the value was inactive: 87%; for `COc1ccc(CCNC(=O)C(=O)NCC(c2cccs2)S(=O)(=O)c2cccs2)cc1` (stereo not drawn), inactive: 83%.
